Measured values as given in the RNAGym collection of RNA variant scans (doi:10.1093/nar/gkz1192).
The source gives no read counts; variants with many changes may rest on few reads.

B1: CPEB3 Ribozyme (parent)
chain: UAACAGGGGGCCACAGCAGAAGCGUUCACGUCGCAGCCCCUGUCAGAUUCUGGUGAAUCUGCGAAUUCUGCUGUAUAUCUC

Variants of: B1
Experiment: self-cleavage, relative activity (ratio to wild type); higher = more cleavage; in vitro, sequencing
In short: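 Barcoded CPEB3 ribozyme mutants, produced by rounds of error-prone PCR, self-cleaved while being transcribed with T7 RNA polymerase for 5 hours at 37°C and during a subsequent 15 min DNase I step before EDTA was added. Sequencing of template-switched cDNA on Illumina gave cleaved and total reads, and DNA sequencing assigned barcodes to variants. Each variant's relative activity is its cleaved/total read fraction divided by the unmutated ribozyme's fraction, averaged across three batches. A variant needed a minimum of 5 reads.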

Variant	self-cleavage
A28U U48C U67A C79A	0.11
U31A U43C U69A U80A	0.09
U31C A45U U49C U60A	0.34
U31C G55A U72A	0.24
A28G U67A U69A A75U	0.14
U31C C39A A45C U60C	0.16
A28U G42A U80C	0.41
U31C A45G U54A A56G A64G U72C U76C	0.12
A28G U51C U58G A65G	0.32
U31A G33A U58C U66C U76C U78C	0.07
U31A A45G U76C	0.27
A28U U31A U48A U76G	0.09
A28G U43C U51A	0.38
U31C A56G G73C	1.07
U31C C40A U60C C68A	0.12
U31A U51G G70A	0.22
G30C A35G U48C	0.11
G30U U31A A64G U69A	0.17
U31C A45G U51C U67C U78C	0.47
C29U C38U U67C A77G	0.09
A28U U41C A65G	0.31
C29U G46A U74C	0.09
A28U A57G U60C U69C	0.23
A28U U31A U76G	0.26

Variant	self-cleavage
U31C G33A A47G U80C	0.42
A28G U41G A65G	0.23
U31C A47G U49G U51A A57G A77G U80A	0.11
G30U U48A U72C	0.14
U31A A45G U49C U51C U66C U80A	0.08
U31C A35U U41A U43A U67C	0.12
A28U A56U A65G	0.14
A28U A57U U69C	0.19
U31A A35G U67A U78C	0.82
G30A U48C G55U U60C A65U	0.33
A28U C50A A56U U67A	0.24
U31C C38U G52A	0.78
U31A C40A U48C	0.08
A28U U43A G61U A77U	0.43
A28G U43A U49C U60C G73A U76C	0.06
U31C C71U C81U	0.72
C29U A35G A47U U74A	1.03
U31A A45G U76C U80G	0.36
C29U U54G A57G U66C U67A	0.16
A28G U76A U78C	0.6
U31C C32G U41C A45U U69C C71G U80C	0.07
A28U U43C A77G	0.32
G30A U43C A45G U48C	0.07
G30A C50A U74C U78C	0.06

Variant	self-cleavage
A28U U54A U78C	0.79
U31C A64G U76C	0.74
U31A U49G G53C	0.22
G30C U66C U69A	0.06
U31A C38A U60A U67C U69C	0.05
A28U G46A U66A C68U U69C U74C	0.1
C29A C39U U58C	0.21
U31C A56G U60C	0.26
C29A U41G A47G U74A	0.13
A28U U31C G33C A64U	0.18
U31A U41C G61A	0.44
C29U A75G U76A	0.5
C29U U41A U51G A77U	0.29
U31C A35G U43A U69C	0.76
U31A A45C A47G	0.13
C29G U31C A64G U69A	0.05
A28U U41A A65G	0.07
U31A U41C U74C	0.54
A28U A45U U48C A56G G63A A64G	0.06
U31A U67C U72C	0.35
C29G C40A U43C	0.27
U31A U43A U67C U80C	0.23
A28U A45G U60C U78A	0.9
U31A C37G U51C	0.69

Variant	self-cleavage
A28G U48A U58A	0.17
U31C A56G A64U C68U	0.15
U31A A35U U48C U49C U51C	0.08
G30U C37U U54G U67A	0.07
U31C G53C U74C C81U	1.16
A28G U41C C50A U72A	0.24
U31C A75C U78C	0.69
G30A U31C U67C	0.08
C29A U31C U67C	0.09
U31C A35U A56U A64U	0.07
G30C U48C U67A	0.13
G30A G36A U67C	0.04
A28U A35G C37G G70C	0.09
C29U U69C U78C	0.16
A28U G46U U54C	0.21
C29U A56U G63A A65U U67C U74G	0.11
U31C C50A A75G	0.18
C29A U41A G53A U78C	0.13
G30A U51C A56U U60C	0.08
U31A U54A U67C	0.16
U31A U54G A57G	0.23
A28U U58A G70U	0.14
U31A A56U U72C	0.22
G30A C34G U76C	0.21

Variant	self-cleavage
G30A U43G U51C U72C	0.1
U31A A35G U60C	0.93
C29A U49C U54C	0.13
U31A U41G U76A	0.16
U31C C39U U72C U76A	0.35
A28G U66C U78G	0
A28U U76A U78C	0.71
A28U U43C U49C U58C U72A	0.17
U31A U43A U54C U58A	0.31
A28G U41A U72A	0.2
A28U A35U U54C U58C	0.09
G30A A64U A65G	0.22
U31C A35U C37A A57G U60C	0.12
U31C G55A A64G	0.19
U31C C34U U48C	0.14
G30A U49A A64G	0.08
C29G U49C U54C	0.23
G30A U31C C59A	0.07
A28G U41C U43A U80A	0.3
C29U A35U A45G C62U U69C	0.07
U31A U54A U72C	0.68
A28U A57G U58A	0.1
A28G U48C U51C A64G	0.07
G30A A35U A45G U58G U60A	0.05

Variant	self-cleavage
U31A U58C U69C U72C	0.12
U31C A35G U78C	1.19
A28G U48C U51C A56U	0.17
C29U C37A U41C U51A	0.25
A28G U41C U66C U69A	0.11
C29A A35G A45G	0.96
C29G C34G A47G U60A G70A	0.1
U31C U41A U43A U51C C59A	0.15
U31A U41C U72G	0.43
A28U U43G G46U U51A A57G U72A	0.15
A28G U49C C50A A64G	0.13
C29U A65G U72A	0.18
U31A U41A U48C U69C	0.11
C29U U41A A64G U76C	0.17
A28U C40G G42U A57G U69C	0.12
U31C A35G U48C U72A G73U	1.01
C29U A45C U48C U78C	0.06
A28G U43C G63A U80G	0.38
A28G U48C U58A A64G	0.05
C29A A35G C38U U60A	0.64
G30C U31C U49C	0.08
A28U A35G A56G A65G A77U	1.04
C29G U31C A45G U72C	0.07
U31C C38U U80A	0.82

Variant	self-cleavage
U31A U43C U66G U69C	0.15
A28G U54A U74C	1.19
A28U U76C U80C	1.11
U31C G33A A64G C71U U72A	0.11
U31C U41A A45G G46C A47G U67A U80A	0.12
U31C A35U C40U	0.12
A28U U51C U76C	0.83
U31A U51C U60A	0.2
G30C U66A U74C U80C	0.34
A28G U54C U72G	0.48
A28G U60C U67C	0.11
U31A G33A A35G	0.2
U31A U43A U49C U60G U72A U76A	0.04
U31A C44A C59U A64G A75G	0.03
A28U U51G U54C C68A	0.16
C29G A64G U66C U76A	0.16
A28U U49C G53A	0.23
A28G U48A A57G A64U U76C	0.05
A28G U60C U72G U78C	0.17
A28G U67C U78A U80A	0.14
A28U C32A U41C U72C	0.09
G30A U31A G55C U66C	0.17
A28U U41C A47U U60C G61A A77U	0.1
